# Laboratory results from publication PMC5892938.
# Some of the results follow. At the low end of the ranking, values are background and their order means little.
# Target: GST-SBP-SLBP (stem-loop binding protein) (UniProt Q14493)
# Experiment: targeted RNA Bind-n-Seq;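 further: DESeq read counts versus GST-SBP nonspecific binding control pulldown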
# Details: RBNS binding buffer: 25 mM Tris pH 7.5, 150 mM KCl, 3 mM MgCl2, 0.1% Tween, 0.5 mg/mL BSA, 1 mM DTT; 27 nM protein, 750 pM RNA pool; temperature not stated; high values mean tight binding
row,Sequence,binding signal (log2 fold change)
1,GGUCACGUCUCAAUCAACUCAUCUCCAGGAGUUUUCUCCUGUUUAGUCAACAGCUCGCAGUCAAG,0.117
2,GGUCACGUCUCAAUCAACUCUUCGUCCAGGGAAACCCCUGGUAAUCUCAACAGCUCGCAGUCAAG,0.18
3,GGUCACGUCUCAAUCAACUCCUCAGAGGGGGGGAAAACCCCUUUACCCUCCAAUUCAACAGCUCGCAGUCAAG,-0.431
4,GGUCACGUCUCAAUCAACUCAUUCCCCAGGGAAAUCCCUGGCUAACUCAACAGCUCGCAGUCAAG,0.243
5,GGUCACGUCUCAAUCAACUCACAAGAGGGGGGGAAAACCCCUUUACCCUCGGAAUCAACAGCUCGCAGUCAAG,-0.0942
6,GGUCACGUCUCAAUCAACUCAUCAGAGGGGGGGAAAACCCCUUUGCCCUCAUCUUCAACAGCUCGCAGUCAAG,0.0385
7,GGUCACGUCUCAAUCAACUCAAUCUCAGGAGUUUCCUCCUGCAUACUCAACAGCUCGCAGUCAAG,0.181
8,GGUCACGUCUCAAUCAACUCAAUUUCCAGGGAAACCCCUGGCAUUCUCAACAGCUCGCAGUCAAG,-0.0943
9,GGUCACGUCUCAAUCAACUCAUUCCCCAGGGAAACCCCUGGUUUAUUCAACAGCUCGCAGUCAAG,-0.302
10,GGUCACGUCUCAAUCAACUCACUAGAGGGGGGGAAAACCCCUUUACCCUCACCAUCAACAGCUCGCAGUCAAG,0.198
11,GGUCACGUCUCAAUCAACUCUAAAGAGGGGGGGAAAACCCCUUUACCCUCCGUUUCAACAGCUCGCAGUCAAG,-0.438
12,GGUCACGUCUCAAUCAACUCACUCGAGGGGGGGAAAACCCCUUUACCCUCAAAAUCAACAGCUCGCAGUCAAG,-0.0986
13,GGUCACGUCUCAAUCAACUCUACGCCAGGAGUUUUCUCCUGUAAAUUCAACAGCUCGCAGUCAAG,0.254
14,GGUCACGUCUCAAUCAACUCCCUCGAGGGGGGGAAAACCCCUUUACCCUCAAUAUCAACAGCUCGCAGUCAAG,-0.0806
15,GGUCACGUCUCAAUCAACUCUUACGAGGGGGGGAAAACCCCUUUGCCCUCACAUUCAACAGCUCGCAGUCAAG,-0.344
16,GGUCACGUCUCAAUCAACUCAUCUCCCAGGGAAAGCCCUGGCAUAUUCAACAGCUCGCAGUCAAG,0.0799
17,GGUCACGUCUCAAUCAACUCUUCCCCCAGGGAAAUCCCUGGCAAUUUCAACAGCUCGCAGUCAAG,0.000768
18,GGUCACGUCUCAAUCAACUCAACUCCCAGGGAAACCCCUGGCAAACUCAACAGCUCGCAGUCAAG,-0.036
19,GGUCACGUCUCAAUCAACUCCUAAGAGGGGGGGAAAACCCCUUUACCCUCCACCUCAACAGCUCGCAGUCAAG,-0.16
20,GGUCACGUCUCAAUCAACUCUAUCCCCAGGGAAAGCCCUGGUUUUCUCAACAGCUCGCAGUCAAG,0.0973
21,GGUCACGUCUCAAUCAACUCCAAAGAGGGGGGGAAAACCCCUUUACCCUCCAAAUCAACAGCUCGCAGUCAAG,-0.0423
22,GGUCACGUCUCAAUCAACUCAAUUCCCAGGGAAACCCCUGGCUUUCUCAACAGCUCGCAGUCAAG,0.183
23,GGUCACGUCUCAAUCAACUCAGUUUCAGGAGUUUCCUCCUGCAUAUUCAACAGCUCGCAGUCAAG,0.0857
24,GGUCACGUCUCAAUCAACUCAUCCCCCAGGGAAACCCCUGGUUAAUUCAACAGCUCGCAGUCAAG,-0.15
25,GGUCACGUCUCAAUCAACUCAUUUUCCAGGGAAAGCCCUGGCUAAUUCAACAGCUCGCAGUCAAG,0.256

row,Sequence,binding signal (log2 fold change)
1,GGUCACGUCUCAAUCAACUCAUUCCCAGGAGUUUCCUCCUGCAAACUCAACAGCUCGCAGUCAAG,0.0114
2,GGUCACGUCUCAAUCAACUCAACAGAGGGGGGGAAAACCCCUUUACCCUCGAAAUCAACAGCUCGCAGUCAAG,-0.127
3,GGUCACGUCUCAAUCAACUCAUUCCCCAGGGAAAACCCUGGUAUUUUCAACAGCUCGCAGUCAAG,0.19
4,GGUCACGUCUCAAUCAACUCUUUUUCCAGGGAAAACCCUGGUUUUUUCAACAGCUCGCAGUCAAG,-0.139
5,GGUCACGUCUCAAUCAACUCAUUAGAGGGGGGGAAAACCCCUUUGCCCUCAACUUCAACAGCUCGCAGUCAAG,-0.542
6,GGUCACGUCUCAAUCAACUCUACUCCCAGGGAAAACCCUGGUUUACUCAACAGCUCGCAGUCAAG,0.104
7,GGUCACGUCUCAAUCAACUCAACGCCAGGAGUUUACUCCUGUUAUUUCAACAGCUCGCAGUCAAG,0.0856
8,GGUCACGUCUCAAUCAACUCAUCUCCAGGAGUUUACUCCUGUUAUCUCAACAGCUCGCAGUCAAG,-0.0937
9,GGUCACGUCUCAAUCAACUCUUUCCCAGGAGUUUACUCCUGUAUUCUCAACAGCUCGCAGUCAAG,-0.00238
10,GGUCACGUCUCAAUCAACUCUUCCUCAGGAGUUUUCUCCUGCAUUCUCAACAGCUCGCAGUCAAG,0.00296
11,GGUCACGUCUCAAUCAACUCAUUCCCAGGAGUUUGCUCCUGCUUUCUCAACAGCUCGCAGUCAAG,0.132
12,GGUCACGUCUCAAUCAACUCCUCAGAGGGGGGGAAAACCCCUUUACCCUCACAUUCAACAGCUCGCAGUCAAG,0.026
13,GGUCACGUCUCAAUCAACUCUACAGAGGGGGGGAAAACCCCUUUACCCUCACCAUCAACAGCUCGCAGUCAAG,-0.0333
14,GGUCACGUCUCAAUCAACUCUCUCGAGGGGGGGAAAACCCCUUUACCCUCAACAUCAACAGCUCGCAGUCAAG,0.151
15,GGUCACGUCUCAAUCAACUCUUUUCCAGGAGUUUUCUCCUGCAAUCUCAACAGCUCGCAGUCAAG,-0.0416
16,GGUCACGUCUCAAUCAACUCAUCUUCCAGGGAAAUCCCUGGCAUUCUCAACAGCUCGCAGUCAAG,-0.174
17,GGUCACGUCUCAAUCAACUCCCUAGAGGGGGGGAAAACCCCUUUGCCCUCAUUUUCAACAGCUCGCAGUCAAG,-0.0984
18,GGUCACGUCUCAAUCAACUCAACAGAGGGGGGGAAAACCCCUUUACCCUCACUAUCAACAGCUCGCAGUCAAG,0.12
19,GGUCACGUCUCAAUCAACUCCUUCGAGGGGGGGAAAACCCCUUUACCCUCUUUCUCAACAGCUCGCAGUCAAG,-0.286
20,GGUCACGUCUCAAUCAACUCAACUCCCAGGGAAAUCCCUGGCUUUCUCAACAGCUCGCAGUCAAG,0.0469
21,GGUCACGUCUCAAUCAACUCUAUUCCCAGGGAAAACCCUGGCAAAUUCAACAGCUCGCAGUCAAG,0.0588
22,GGUCACGUCUCAAUCAACUCAUUCUCAGGAGUUUUCUCCUGCAAAUUCAACAGCUCGCAGUCAAG,0.0846
23,GGUCACGUCUCAAUCAACUCACACGAGGGGGGGAAAACCCCUUUACCCUCAAAUUCAACAGCUCGCAGUCAAG,-0.436
24,GGUCACGUCUCAAUCAACUCGUCUUCAGGAGUUUUCUCCUGCAAUUUCAACAGCUCGCAGUCAAG,0.0409
25,GGUCACGUCUCAAUCAACUCCUACGAGGGGGGGAAAACCCCUUUACCCUCCAUAUCAACAGCUCGCAGUCAAG,-0.291

row,Sequence,binding signal (log2 fold change)
1,GGUCACGUCUCAAUCAACUCAACUCCAGGAGUUUACUCCUGUUAUUUCAACAGCUCGCAGUCAAG,-0.0725
2,GGUCACGUCUCAAUCAACUCCAUAGAGGGGGGGAAAACCCCUUUGCCCUCACCUUCAACAGCUCGCAGUCAAG,-0.11
3,GGUCACGUCUCAAUCAACUCAAUCUCCAGGGAAAUCCCUGGCUAUCUCAACAGCUCGCAGUCAAG,0.00171
4,GGUCACGUCUCAAUCAACUCUUCCCCAGGAGUUUUCUCCUGCAAACUCAACAGCUCGCAGUCAAG,0.0573
5,GGUCACGUCUCAAUCAACUCUUUCGAGGGGGGGAAAACCCCUUUACCCUCACAAUCAACAGCUCGCAGUCAAG,-0.0699
6,GGUCACGUCUCAAUCAACUCAUUAGAGGGGGGGAAAACCCCUUUGCCCUCAACCUCAACAGCUCGCAGUCAAG,-0.335
7,GGUCACGUCUCAAUCAACUCAACUCCAGGAGUUUACUCCUGUAUACUCAACAGCUCGCAGUCAAG,0.132
8,GGUCACGUCUCAAUCAACUCAUUCUCAGGAGUUUUCUCCUGUAAACUCAACAGCUCGCAGUCAAG,0.224
9,GGUCACGUCUCAAUCAACUCUUUCUCCAGGGAAACCCCUGGCAUUUUCAACAGCUCGCAGUCAAG,0.0231
10,GGUCACGUCUCAAUCAACUCUAUUCCAGGAGUUUUCUCCUGCAUUUUCAACAGCUCGCAGUCAAG,0.0267
11,GGUCACGUCUCAAUCAACUCAUCUCCCAGGGAAAACCCUGGUUUACUCAACAGCUCGCAGUCAAG,-0.277
12,GGUCACGUCUCAAUCAACUCCUACGAGGGGGGGAAAACCCCUUUACCCUCACCAUCAACAGCUCGCAGUCAAG,-0.134
13,GGUCACGUCUCAAUCAACUCAUCGUCCAGGGAAAACCCUGGCUUUUUCAACAGCUCGCAGUCAAG,-0.115
14,GGUCACGUCUCAAUCAACUCAUCCCCAGGAGUUUCCUCCUGUUUACUCAACAGCUCGCAGUCAAG,-0.0513
15,GGUCACGUCUCAAUCAACUCUUAAGAGGGGGGGAAAACCCCUUUACCCUCAAUAUCAACAGCUCGCAGUCAAG,-0.547
16,GGUCACGUCUCAAUCAACUCUUUCUCCAGGGAAAACCCUGGCAAACUCAACAGCUCGCAGUCAAG,-0.0271
17,GGUCACGUCUCAAUCAACUCCCUCGAGGGGGGGAAAACCCCUUUACCCUCAACUUCAACAGCUCGCAGUCAAG,0.191
18,GGUCACGUCUCAAUCAACUCUUACGAGGGGGGGAAAACCCCUUUGCCCUCACAAUCAACAGCUCGCAGUCAAG,-0.00764
19,GGUCACGUCUCAAUCAACUCAGUUUCAGGAGUUUUCUCCUGUAUUUUCAACAGCUCGCAGUCAAG,0.144
20,GGUCACGUCUCAAUCAACUCUAACGAGGGGGGGAAAACCCCUUUACCCUCCAAUUCAACAGCUCGCAGUCAAG,-0.167
21,GGUCACGUCUCAAUCAACUCCUAAGAGGGGGGGAAAACCCCUUUACCCUCCAUGUCAACAGCUCGCAGUCAAG,-0.269
22,GGUCACGUCUCAAUCAACUCCUUAGAGGGGGGGAAAACCCCUUUGCCCUCGAAUUCAACAGCUCGCAGUCAAG,0.379
23,GGUCACGUCUCAAUCAACUCCUUAGAGGGGGGGAAAACCCCUUUGCCCUCCAACUCAACAGCUCGCAGUCAAG,-0.171
